# Test results: ChEMBL document CHEMBL4888484, “Replenishing the malaria drug discovery pipeline: Screening and hit evaluation of the MMV Hit Generation Library 1 (HGL1) against asexual blood stage Plasmodium falciparum ,using a nano luciferase reporter read-out” (2022)
# The whole screen tested about 150,000 compounds, of which about 540 (0.36%) showed an effect of 50% or more. The list shows a part of the results.
# Tested on: Plasmodium falciparum
# Assay: Primary screen in NF54 nanoGlo assay, in single point, at 2uM, 72h; a lower Z score goes with more inhibition
# Assay type: functional, Erythrocyte
# Conditions: timepoint 72 hour
SMILES,% Inhibition [%],Z score
COC[C@H](C)NC(=O)c1ccc(Br)cc1,-7,1.17
Nc1nccnc1C(=O)Nc1cccc(-c2c[nH]nn2)c1,5,-0.95
CC(=O)NC(C)(C)C(=O)Oc1ccc(C)cc1Cl,-2,0.4
CC(C)(C)n1nnnc1[C@@H]1CC2(CCOCC2)C(=O)N1Cc1ccco1,-7,0.85
O=S(=O)(N1CCCC1)N1CCCc2ccccc2CC1,-4,0.7
c1ccc(-c2cnn3cc(CN(Cc4ccccn4)C4CC4)cnc23)cc1,1,-0.24
CCN1CC2(CCN(C[C@]3(c4cccc(F)c4)CCOC3)CC2)OC1=O,-12,1.47
NC(=O)c1cc2c(nc1N1CC[C@@]3(CCCN(CC4CCC4)C3=O)C1)CCC2,8,-1.14
CCc1nc2cc(NC(=O)[C@@H]3CCCCN3C(=O)c3ccccc3)ccc2n1CC,-19,2.81
COc1cc(CN2CC[C@H](S(=O)(=O)N3CCCC3)C2)ccc1C,-8,1.17
Cc1ccc(C(N)=O)cc1NCCc1cccs1,-9,1.73
O=C1C2CC=CCC2C(=O)N1CNc1cccc(Cl)c1 (stereo not drawn),-9,1.52
CC(C)C(=O)N1CCC(Nc2ccc3nnnn3n2)CC1,-10,1.98
Cc1nc(C(C)C)oc1CNC(=O)[C@@H]1CN(C)C(=O)N1,0,-0.08
CCc1ccccc1S(=O)(=O)N1CC[C@@]2(CCC(=O)N2C)C1,-6,0.86
COc1ccc(S(=O)(=O)c2c(N)n(CC(C)C)c3nc4ccccc4nc23)cc1,0,0.03
COc1ccc(S(=O)(=O)C2CCN(C(=O)CN3C(=O)CCC3=O)CC2)cc1,-22,2.88
CC(C)Oc1ccc(CNC(=O)[C@H]2C[C@H]3CCCN3[C@@]23C(=O)Nc2ccccc23)cc1,7,-0.67
CCCn1nc(C(=O)O)c2c1CC[C@H](N1CCN(Cc3ccccn3)CC1)C2,6,-0.83
CCc1noc(C)c1C(=O)Nc1cccc(C(=O)NC2CC2)c1,-6,1.06
Cc1nc2c(c(N[C@H]3C[C@H](c4cc(=O)[nH]c(C)n4)C3)n1)CCC2,5,-0.57

SMILES,% Inhibition [%],Z score
CC(C)n1cncc1CN(C)[C@@H](C)c1ccon1,19,-2.11
O=C(c1ccsc1)N1CC[C@H](N2CCc3ccccc3C2)C1,3,-0.39
Cc1nc(C(=O)NC2(C(N)=O)CCCC2)cs1,-8,1.62
CC(C)c1cc(C(=O)N[C@@H]2COCC[C@@H]2OCC2CC2)nc(N)n1,-2,0.14
CC1CCCC(NC(=O)CN2CCN(C3CC3)CC2)C1C (stereo not drawn),-3,0.53
CC(=O)Nc1ccc(OCC(=O)N2CCC(C)CC2)nc1,6,-1.11
CS(=O)(=O)N1CCN(C(=O)[C@@H]2CCCn3c(-c4ccccc4)cnc32)CC1,-6,0.86
O=C(NCC1CCN([C@H]2CCOC2)CC1)c1ccccc1,-8,0.94
Cn1ccc(NC(=O)C(=O)N2CCC[C@H](NCc3ccccc3)C2)n1,-7,0.93
COc1ccc(S(=O)(=O)[C@@H](CNC(=O)CC(C)C)c2cccnc2)cc1,10,-1.36
COC[C@H]1CN(CC(=O)N(C)C)CC(C)(C)O1,-17,2.46
CC(NC(=O)C1CCCN(C(=O)c2cccn2-c2cccnc2)C1)c1ccccc1 (stereo not drawn),-1,0.22
N#Cc1cccc(C(=O)N2CCN(C[C@H]3CCOC3)CC2)c1,-10,1.1
Cc1noc(C)c1CCc1nc(CC(N)=O)nn1C1Cc2ccccc2C1,-3,0.43
Cc1ccc(C(=O)NCc2ccnc(-n3ccnc3C)c2)c(O)c1,-42,4.96
Cc1ccc(CCn2ncn(C)c2=O)cc1,-3,0.58
CC(C)CC[C@](C)(O)CNC(=O)C(=O)Nc1cccc(F)c1F,-13,2.44
O=C(NC1CCS(=O)(=O)CC1)[C@@H]1CCOc2ccc(Cl)cc21,0,-0.04
Cc1nc(C)n(C2CN(C(=O)Cc3ccc4cn[nH]c4c3)C2)n1,-8,0.89
Cc1nc(C2CCN(C(=O)[C@H]3CC34CC4)CC2)[nH]c1C,-3,0.32
CC[C@@H](C(=O)N1CCN(CC2CCC2)CC1)N(C)CC,-4,0.58

SMILES,% Inhibition [%],Z score
CC[C@H](NC(=O)c1ccc2nc(C)cn2c1)c1ccc(S(C)(=O)=O)cc1,-9,1.86
Cc1noc(COc2ccc(C(=O)NC3CC3)cc2)n1,0,-0.03
CC(=O)N1N=C(c2cc(C)nc3ccccc23)O[C@H]1c1ccc2ccccc2c1,3,-0.48
Cc1ccc2oc(-c3noc([C@@H]4C[C@H]5CC[C@@H]4O5)n3)cc2c1,3,-0.49
C=C1CCC(NS(=O)(=O)c2ccc(-n3cccn3)cc2)CC1,-4,0.69
CC1CCN(C(=O)Nc2cccc(C#N)c2)CC[S+]1[O-] (stereo not drawn),10,-1.33
CC(=O)Nc1ccc(CNC(C)[C@H]2COC(C)(C)O2)cn1 (stereo partly drawn),19,-2.39
CCOc1ccc(NCC(C)C)c(C(N)=O)c1,4,-0.51
O=C(N[C@H]1CN[C@H](C(=O)N2CCOCC2)C1)c1cccc(Cl)c1Cl,-4,0.87
Cc1nnc(-c2ccc(=O)n(CC(=O)Nc3ccc(F)cc3)c2)o1,0,0.02
Cc1nc(-c2cccc(NC(=O)CN3CCC[C@H]3c3nc4ccccc4s3)c2)cs1,-14,1.39
Cc1ccc(-c2nc(Oc3cccc(Cl)c3)nc(-c3ccc(C)cc3)n2)cc1,-9,1.79
CC(C)Oc1ccc(NC(=O)NCc2ccc3cncn3c2)nn1,-4,0.55
CC1=C(C(=O)Nc2ccccc2)[C@H](c2ccc(Cl)cc2)c2c(n(C)c(=O)n(C)c2=O)N1,-3,0.36
Cc1ccccc1OCC(=O)NCc1cc(-c2cccs2)nn1C,-18,2.34
Cc1ccnn1CCC(=O)N1C[C@@H]2CC[C@H]1CN(S(=O)(=O)N(C)C)C2,-9,1.86
Cc1cc(C)c(CNC(=O)c2cncnc2C)c(=O)[nH]1,-11,1.68
COC1C2CC3CN(C(=O)NCCc4cscn4)C1C3C2 (stereo not drawn),4,-0.58
CCc1nc(CN2CCCC[C@H]2c2nnc(C3CCC3)o2)cs1,-11,2.02
COc1ccc(CN(CCC2(Cc3ccccc3)CC(C)N(C)CC2C)C(C)=O)cc1OC (stereo not drawn),-5,0.58
COc1ccc(-c2ccc(=O)[nH]n2)cc1S(=O)(=O)N1CCN(c2cccc(Cl)c2)CC1,-20,2.65

SMILES,% Inhibition [%],Z score
Cc1cccc(-c2ccc(C(=O)NC[C@H](C)c3ccccc3)c(N3CCC(O)CC3)n2)c1,-7,1.13
Cc1nc(CN(C)CCc2scnc2C)c[nH]1,2,-0.31
Cc1cc(-c2nnc(-c3ccccc3)o2)c(C)n1CC(=O)NCc1ccccc1F,-17,3.27
CN(C)C(=O)C1CCCC(NC(=O)NC(Cc2ccccc2)c2ncco2)C1 (stereo not drawn),11,-1.44
Cc1cnc(CNC(=O)c2cccc(S(=O)(=O)N3CCC3)c2)cn1,1,-0.16
CN(C)Cc1ccc([C@@H]2CCCN2C2CCN(C(=O)c3cccs3)CC2)cc1,-8,1.17
CCCn1cnnc1CNS(=O)(=O)c1ccc(-c2c(C)noc2C)s1,1,-0.16
N#CC1(C#N)C(C(N)=O)C1c1ccccc1Cl (stereo not drawn),2,-0.41
Cc1nn(CCN2CCC(C#N)CC2)cc1CNCc1ccccc1,-2,0.37
O=S(=O)(Oc1cc(Cl)ccc1-c1nc2ccccc2o1)c1cccc(Cl)c1Cl,-14,2.07
Cc1cc(=O)cc(O)n1CCc1noc(C2CC2)n1,-6,1.06
CC(=O)N1CCC(C(=O)Nc2cccc3ccccc23)CC1,6,-1.27
Cc1ccccc1N1CC[C@H](CNC(=O)C2CCN(Cc3ccco3)CC2)C1,-4,0.56
CC(C)n1cc(-c2cn(C[C@H]3CCC4(COC4)O3)nn2)cn1,-5,0.93
CCCCN1CCS(=O)(=O)c2c(Cl)c(N3CCN(CC)CC3)nc(Oc3ccc(C#N)cc3)c21,3,-0.54
O=C1C[C@@H](c2ccccc2)N(S(=O)(=O)c2ccc(C(F)(F)F)cc2)CCN1,8,-1.29
CCC(CC)C(=O)Nc1cc(C)ccc1O,2,-0.28
Cc1ccc(NC(=O)Cn2cccc(S(=O)(=O)N3CCCCCC3)c2=O)cc1C,1,-0.21
Cc1oc2ncnc(NC(=O)c3cccnc3)c2c1C,-7,0.94
Cc1ccc(CC(C)NC(=O)CCC2CCCO2)s1 (stereo not drawn),-17,2.71
Cc1c(Br)cccc1CCNC(=O)[C@@H]1CN(C)C(=O)N1,-9,1.2
